Laboratory results from PubChem BioAssay AID588855 (National Center for Advancing Translational Sciences (NCATS), 2011).
“And” between values parts separate entries of the source, which are not always exact repeats. Equal entries are not always repeated. About 5,000 (1.2%) of roughly 410,000 compounds were called active. This list was built around the results that the source calls inconclusive (neither active nor inactive); the mix of calls is not that of the screen. Calls follow the shape of the dose curve; as a rule, active = well fitted inhibition curve with a large enough effect; inconclusive = small, poorly fitted or top-dose-only effect; inactive = no such curve, though single readings can be large or run the other way. Potencies of inconclusive entries are doubtful fits and often do not repeat.

Test: qHTS for Inhibitors of TGF-b; also: nearly all actives have a fitted effect of over 65% in size
Conditions: HepG2 CAGA-GFP TGF-b/SMAD3 reporter, GFP fluorescence, 18 h, TGF-beta stimulated, 500 pg/mL final; series mostly up to 46.1 µM; activity, negative = inhibition: at the top concentration
Procedure, shortened: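 TGF-beta reporter screen: HEPG2 CAGA-GFP, 1% FBS, 500 pg/mL TGF-beta final, 18 h; per-cell GFP summed per well; curves fitted and categorized by class.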
% is scaled to controls: 0 for no effect and ±100 for the full control effect; potency is read from the fitted curve at half-maximal effect; tags tell the direction and shape of the fitted curve.

Structure (SMILES)	Potency	activity, negative = inhibition
CCOC(=O)CCSc1nc(C)c2cc(C)c(C)cc2n1	inconclusive: 35.5 µM [inhibitor, single point]	–
COc1ccc(CNC(=O)c2cccc3c(-c4ccc(F)c(F)c4)coc23)cc1OC	–	inactive: -25.2%
CC(=O)Nc1ccccc1-c1nc2cc(C#N)c(C#N)cc2[nH]c1=O	inconclusive: 10 µM [inhibitor, single point]	–
CC(C)N(C(=O)[C@H]1C[C@H](CC(=O)NCCC2=CCCCC2)C(=O)N2CCc3c([nH]c4cc(-c5ccco5)ccc34)[C@]12C)C(C)C	inconclusive: 10 µM [inhibitor, partial curve, poor fit]	–
COCCCN=C1NN=C(c2cc(C)n(-c3ccccc3F)c2C)CS1	inconclusive: 15.8 µM [inhibitor, single point]	–
CCCCCCn1c(CNC(=O)c2ccccc2)nc2ccccc21	inconclusive: 8.91 µM [inhibitor, partial curve, poor fit]	–
COc1cc(Cl)ccc1OC1(C)CCN(Cc2ccc(SC)cc2)C1 (stereo not given)	inconclusive: 11.2 µM [inhibitor, partial curve, poor fit]	–
COc1ccc(CC(=O)Nc2ccc(C)c(S(=O)(=O)N3CCCCCC3)c2)cc1	inconclusive: 35.5 µM [inhibitor, single point]	–
O=[N+]([O-])c1cncc([N+](=O)[O-])c1Nc1cccc(O)c1	inconclusive: 15.8 µM [inhibitor, single point]	–
COC(=O)[C@@H]1N2C(=O)[C@@H](NC(=O)C(C)Oc3ccccc3)[C@H]2SC1(C)C (stereo not given in full)	inconclusive: 7.94 µM [inhibitor, partial curve]	–
O=C(CN1CCN(Cc2ccccc2)CC1)Nc1ccc2c(c1)CCC2	–	inactive: -2.4%
COc1ccccc1OCCn1cc(/C=C(\C#N)C(=O)NCc2ccco2)c2ccccc21	inconclusive: 7.08 µM [inhibitor, partial curve, poor fit]	–
O=c1[nH]c(Nc2nc3ccccc3o2)nc2c1CCCC2	inconclusive: 2.51 µM [inhibitor, full curve, poor fit]	–
O=C(Cc1cccc(NC(=O)C2CCCN(C(=O)C3CCC3)C2)c1)Nc1cccc(C(=O)N2CCCC2)c1 (stereo not given)	inconclusive: 0.141 µM [inhibitor, partial curve, poor fit]	–
CC(C)Oc1ccc(CNC(=O)Cn2c(=O)oc3ccccc32)cc1	inactive	–
COc1ccccc1N1CCN(/N=C/c2c(C)nn(-c3ccccc3)c2C)CC1	inconclusive: 35.5 µM [inhibitor, single point]	–
CC(C)CCNC(=O)CSc1c2c(nc3ccc(Cl)cc13)CCCC2	inconclusive: 35.5 µM [inhibitor, single point]	–
CCOc1ccc(CNC(=O)C2CCCN(S(=O)(=O)c3ccc4c(c3)CCCC(=O)N4)C2)cc1 (stereo not given)	–	inactive: 4.45%
Cn1c(SCc2ccccc2Cl)nc2c1c(=O)[nH]c(=O)n2C	–	inactive: -1.18%
Cc1cccc(-c2nc(SCC(=O)Nc3cccc(C(F)(F)F)c3)n3[nH]c(=O)cc3n2)c1	inconclusive: 35.5 µM [inhibitor, single point]	–

Structure (SMILES)	Potency	activity, negative = inhibition
COc1ccc(CCc2cc(OC)c(OC)c(OC)c2)cc1	inconclusive: 6.31 µM [inhibitor, full curve, poor fit]	–
Cc1nn(Cc2ccc(Cl)cc2)c(C)c1NC(=O)c1noc2c1CCc1ccccc1-2	inconclusive: 22.4 µM [inhibitor, single point] and inconclusive: 7.08 µM [inhibitor, full curve]	–
COc1cccc(CN(C)CC(O)COC(c2ccccc2)c2ccccc2C)c1 (stereo not given)	inconclusive: 28.2 µM [inhibitor, single point]	–
Cn1c(=O)c2c(ncn2CC(=O)OCC(=O)Nc2sccc2C(N)=O)n(C)c1=O	inconclusive: 3.55 µM [inhibitor, single point]	–
Cn1c(CCC(=O)OCC(=O)NCc2ccc3c(c2)OCO3)nc(=O)c2ccccc21	–	inactive: -0.271%
COc1cccc(-c2c[nH]c(=O)[nH]c2=O)c1	inconclusive: 5.62 µM [inhibitor, single point]	–
CCCCC[n+]1ccn(C2=C([O-])c3ccccc3C(=O)/C2=N\S(=O)(=O)c2ccc(Br)cc2)c1	active: 1.58 µM	–
Cc1ccc(OCc2nc(-c3ccc(C(=O)N4CCN(c5ccc(Cl)cc5)CC4)cc3)oc2C)cc1	inconclusive: 35.5 µM [inhibitor, single point]	–
O=C(CCN1CCN(c2ccccc2)CC1)N/N=C/c1ccccc1O	inconclusive: 6.31 µM [inhibitor, single point]	–
COc1cc(Nc2c3ccccc3nc3ccccc23)cc(OC)c1OC	inconclusive: 25.1 µM [inhibitor, single point]	–
CC(C)(C)C(=O)N1CCC2CC1c1cc(-c3ccc4c(c3)OCO4)ccc12 (stereo not given)	inconclusive: 25.1 µM [inhibitor, single point]	–
COc1ccc(C(O)(C2CCCCC2)C(CN2CCOCC2)c2ccccc2)cc1 (stereo not given)	inconclusive: 31.6 µM [inhibitor, single point]	–
O=[N+]([O-])c1cc([N+](=O)[O-])c(Oc2cncc(Cl)c2)cc1NC1CCCCCCC1	–	inactive: 8.26%
Cc1nc2ccc(S(=O)(=O)c3ccc4nc(C)[nH]c4c3)cc2[nH]1	–	inactive: 0.423%
CCOC(=O)CC/C(=N\NC(N)=O)c1ccc(OC)c(Cl)c1	inconclusive: 35.5 µM [inhibitor, single point]	–
CCc1c(N)nc(N)nc1Nc1ccc(C)c(C)c1	–	inactive: -3.5%
COc1ccc(NC(=O)CN(c2ccc(OC)cc2)S(=O)(=O)c2c(C)nn(C)c2C)cc1	inconclusive: 3.98 µM [inhibitor, full curve, poor fit]	–
O=C(N/N=C/c1ccccc1O)C1SCCCS1	inconclusive: 20 µM [inhibitor, partial curve, poor fit]	–
CCN=C1SC(CC(=O)Nc2ccccc2)C(=O)N1CC (stereo not given)	inconclusive: 0.891 µM [inhibitor, full curve, poor fit]	–
COC(=O)c1ccc(Cn2cc(/C=C\[N+](=O)[O-])c3ccccc32)o1	inconclusive: 22.4 µM [inhibitor, single point]	–
